Experimental data reported in the antibiotic and cytotoxicity screens of Wong et al. (2023).
The other results are listed elsewhere or left out.

What follows are compounds tested on S. aureus RN4220 (assay: growth inhibition call (relative growth <= 0.2)). Conditions: 50 µM.

Growth inhibition call, inactive:
c1coc(CNC[C@H]2Cn3nncc3CO2)c1
C[C@H](CO)N1C[C@H](C)[C@@H](CN(C)Cc2ccc3c(c2)OCO3)OCCCC[C@H](C)Oc2ccc(NC(=O)Nc3ccc(F)cc3)cc2C1=O
Cc1ccc(S(=O)(=O)N(C)C[C@H]2OCCCC[C@H](C)Oc3ccc(NC(=O)Cc4ccccc4)cc3C(=O)N([C@@H](C)CO)C[C@@H]2C)cc1
C[C@@H]1CN([C@H](C)CO)C(=O)Cc2cc(NC(=O)Cn3cnnn3)ccc2O[C@@H]1CN(C)CC1CCCCC1
CCCN(C)C[C@@H]1OCCCC[C@@H](C)Oc2ccc(NS(=O)(=O)c3cn(C)cn3)cc2C(=O)N([C@@H](C)CO)C[C@@H]1C
C[C@H](CO)N1C[C@H](C)[C@H](CN(C)C(=O)NC2CCCCC2)OCCCC[C@H](C)Oc2ccc(NC(=O)Cc3ccccc3)cc2C1=O
COc1cccc(-c2ccc3c(c2)O[C@H](CN(C)C(=O)C2CCC2)[C@@H](C)CN([C@H](C)CO)S3(=O)=O)c1
C[C@@H]1CCCCO[C@@H](CN(C)Cc2ccccc2)[C@@H](C)CN([C@@H](C)CO)C(=O)c2cc(NC(=O)Nc3ccccc3)ccc2O1
N[C@@H]1[C@@H](O)[C@H](O)[C@@H](CO)O[C@H]1O
CS(=O)(=O)N1C[C@@H]2OCCN(c3cnccn3)[C@H]2C1
COc1ccc(C#Cc2cnc3c(c2)C(=O)N([C@@H](C)CO)C[C@@H](C)[C@H](CN(C)CC2CCOCC2)O3)cc1
